Measured values published in a collection of fitness landscapes (doi:10.1126/science.1257360).
The list shows a part of the results.

B1: PhoQ; a variant is named by its letters at X, in order, P23837 (parent)
chain: MKKLLRLFFPLSLRVRFLLATAAVVLVLSLAYGMVALIGYSVSFDKTTFRLLRGESNLFYTLAKWENNKLHVELPENIDKQSPTMTLIYDENGQLLWAQRDVPWLMKMIQPDWLKSNGFHEIEADVNDTSLLLSGDHSIQQQLQEVREDDDDAEMTHSVAVNVYPATSRMPKLTIVVVDTIPVELKSSYMVWSWFIYVLSANLLLVIPLLWVAAWWSLRPIEALAKEVRELEEHNRELLNPATTRELTSLVRNLNRLLKSERERYDKYRTTLTDLTHSLKTPLXXLQXXLRSLRSEKMSVSDAEPVMLEQISRISQQIGYYLHRASMRGGTLLSRELHPVAPLLDNLTSALNKVYQRKGVNISLDISPEISFVGEQNDFVEVMGNVLDNACKYCLEFVEISARQTDEHLYIVVEDDGPGIPLSKREVIFDRGQRVDTLRPGQGVGLAVAREITEQYEGKIVAGESMLGGARMEVIFGRQHSAPKDE

Variants of: B1
Assay: enrichment ratio after two sorts for PhoP signalling (ratio (wild type AVST 3.29)); higher = more functional
Conditions: with PhoP (E. coli)

Variant	enrichment ratio
SDPP	≤ 0.25
KFIS	≤ 0.25
PMIP	≤ 0.25
QYPL	≤ 0.25
YGTH	≤ 0.25
FQEV	≤ 0.25
SLNE	≤ 0.25
SSPG	≤ 0.25
TSIL	≤ 0.25
WWTI	≤ 0.25
FCDI	≤ 0.25
ENQY	≤ 0.25
HKIM	≤ 0.25
ILFW	≤ 0.25
VDGN	≤ 0.25
HDTT	≤ 0.25
NVQP	≤ 0.25
EKYY	≤ 0.25
QFTR	≤ 0.25
WRAN	≤ 0.25
EHFY	≤ 0.25
FILC	≤ 0.25
IWDL	≤ 0.25
MAHA	≤ 0.25
KRQY	≤ 0.25
RMVE	≤ 0.25

Variant	enrichment ratio
MGFW	≤ 0.25
KATE	≤ 0.25
FKGL	≤ 0.25
TIIE	1.03
FTSR	0.29
FLIS	≤ 0.25
DINH	≤ 0.25
FHEY	≤ 0.25
AMPD	≤ 0.25
DSVH	≤ 0.25
RHAE	≤ 0.25
MMIE	≤ 0.25
HGFR	≤ 0.25
VDLY	≤ 0.25
NRQM	≤ 0.25
RTNN	≤ 0.25
PRWE	≤ 0.25
VDEW	≤ 0.25
MGGY	6.28
LQDQ	≤ 0.25
LLKS	≤ 0.25
DHLG	≤ 0.25
FMIR	0.369
VYIK	≤ 0.25
LLPR	≤ 0.25
WNSP	≤ 0.25

Variant	enrichment ratio
QSWW	≤ 0.25
LQVQ	≤ 0.25
VLQV	≤ 0.25
WIPN	≤ 0.25
MIGN	5.31
WSHQ	≤ 0.25
FTAG	≤ 0.25
PTLS	≤ 0.25
YEEI	≤ 0.25
EPCC	≤ 0.25
FFYA	≤ 0.25
GFAR	≤ 0.25
DFYW	≤ 0.25
RRIM	≤ 0.25
QTHY	≤ 0.25
YNKD	≤ 0.25
RATQ	≤ 0.25
VMPR	≤ 0.25
MYDA	≤ 0.25
HSLL	11.1
ERHF	≤ 0.25
MAAD	≤ 0.25
YSMI	7.06
EICD	≤ 0.25
NNPG	≤ 0.25
